The text below walks through data of PubChem BioAssay (NCI).

The assay relates to NCI-H322M lung. The assay is described as follows: DTP human tumour cell line panel, 48 h.

Structures are written as SMILES. Several values for one entry are separate records, joined by “and”; a condition that tells them apart may be missing. Identical values can stand only once.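 48-hour exposure; five concentrations; linearly interpolated endpoints. Here, GI50 denotes the concentration required for 50% inhibition of growth. Definition used: TGI = concentration required for complete inhibition of growth.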

`Cc1ccccc1/C=C/c1csnn1`: the TGI is over 100 µM. Still for that read-out and setting: the value for `CC12NC(=C(C#N)C#N)C(C#N)=C3NC(N)=C(C#N)C(=C31)Oc1ccccc12` (configuration not stated) was over 100 µM; that for `CC1=C(C(=O)NNC(=O)Cc2ccccc2)CC(C(=O)NNC(=O)Cc2ccccc2)=C(C)N1` was over 100 µM; that for `CC(NC(=O)Cc1ccc(OP(=O)(OCc2ccc([N+](=O)[O-])o2)N(C)CCCCCl)cc1)c1ccc(OCC2CCCCC2)c(C(N)=O)c1` (configuration not stated) was 7.71 µM. The same measure, in the same setting: the value for `C[N+]1=C(c2cccnc2/C=N/O)OCC1(C)C` was over 100 µM. With `Cc1c2cnccc2c(C)c2c1c1cc(O)ccc1n2C(C)C`, the GI50 is 0.633 µM and the concentration for total growth inhibition (TGI) is 4.83 µM. The molecule `CC(=O)OCCOCn1c2ccccc2c2c3c(c4c5ccccc5n(COCCOC(C)=O)c4c21)C(=O)N(Cc1ccccc1)C3=O` registered a TGI of over 100 µM. On the same count and under the same terms, next, `C/C(=C1/N=C(c2cc([N+](=O)[O-])ccc2Cl)N(c2ccc(Br)cc2)C1=O)c1ccc(N(CCC#N)CCC#N)cc1C`: over 100 µM. In turn, `O=C1C=CC2(CCCCCCC2=O)CC1` (configuration not stated) came in with a TGI of over 100 µM. Turning to `CN1CCN(CCCOc2cccc3nc(Nc4cc(Cl)cc(Cl)c4)ccc23)CC1`, the GI50 is 1.56 µM and the TGI worked out at 3.16 µM.

As to `CN1C(=O)N(C)C2(CCN(CC(CC3OCCO3)c3ccc(F)cc3)CC2)C1=O` (configuration not stated), the TGI was over 100 µM.

On to `CNC(=O)c1cc(Oc2ccc3nc(NC(=O)Nc4ccc(CN5CCOCC5)c(C(F)(F)F)c4)sc3c2)ccn1`, for which the GI50 was 2.33 µM and the TGI came to 7.2 µM. Molecule `COc1ccc2[nH]c3cc4c(=O)c5cc(OC)ccc5[nH]c4cc3c(=O)c2c1` showed a TGI of over 100 µM. `O=C(NCCCCCCCCCCCCNC(=O)c1cnc2ccccc2n1)c1cnc2ccccc2n1` gave a TGI of over 100 µM. Same read-out and setting: next, `CCc1cccc(C(C)C)c1NC(=O)CC1Sc2ccccc2NC1=O` (configuration not stated): over 100 µM; `C=C1CC[C@@]2(C)[C@@H]([C@@H]1C)[C@H]1CC[C@@H]3[C@@]4(C)CC[C@H](O)C(C)(C)[C@@H]4CC[C@@]3(C)[C@]1(C)C[C@@H]2O`: 5.54 µM. Molecule `Cc1ccc2nc(NC(=O)C(=O)C(C(=O)c3ccc4ccccc4c3)C3OC(=O)c4ccccc43)sc2c1` (configuration not stated) had a concentration for total growth inhibition (TGI) of 91.7 µM.

`N/C(=N\N=C\c1cc2ccccc2s1)c1cnccn1` registered a concentration for total growth inhibition (TGI) of over 100 µM. In the case of `O=C1Cc2c(-c3ccccc3)cc(-c3ccccc3)nc2-c2ccccc2N1`, the TGI stood at 29 µM. On the same count and under the same terms, next, `Cc1ccccc1NC(=O)CC1C(=O)Nc2ccccc2S1=O` (configuration not stated): over 100 µM; `CCOC(=O)c1c(N2CCCC2)[nH]c(=O)c(C(c2c(O)c(C(=O)OCC)c(N3CCCC3)[nH]c2=O)C(C)C)c1O`: over 100 µM. Consider `COc1ccc2[nH]c(Cl)c(/C=C3/C(=O)Nc4ccccc43)c2c1`, for which the GI50 was 4.69 µM and the TGI amounted to 13.7 µM. On to `CCN(CC)CCNc1c2ccccc2nc2cccc([N+](=O)[O-])c12`, for which the 50% growth inhibitory concentration (GI50) was 0.0169 µM; the TGI is 0.0558 µM and 0.252 µM. `O=c1oc2cc(O)ccc2c2[nH]c3cc(O)ccc3c12` had a TGI of 87.4 µM. The molecule `CCCCn1c(-c2ccccc2)cs/c1=N\N=C1C=C(C(C)(C)C)C(=O)C(C(C)(C)C)=C1` gave a TGI of over 100 µM. As for `N#CCc1c(F)c(F)c(F)c(F)c1F`, the TGI is over 100 µM. In the case of `CCCCCCCCCCC(=O)CCCCCCC(=O)O`, the concentration for total growth inhibition (TGI) was 59.6 µM. Same read-out and setting: the value for `O/N=C1/CCC/C1=C\c1ccccc1` was over 100 µM. Regarding `Cc1cc(F)c(C(=O)Nc2cccc(-c3nncn3C(C)C)n2)cc1-n1cnc(C2CC2)c1`, the GI50 was 14.8 µM and the total growth inhibition concentration (TGI) worked out at 76.1 µM. For the molecule `Cc1cccc(C(C)(C)C)c1NC(=O)C(C#N)C1=C(Cl)C(=O)c2ccccc2C1=O` (configuration not stated), the TGI worked out at 38.9 µM. Same read-out and setting: next, `Cc1ccc(S(=O)(=O)N(CC(O)COc2ccccc2)c2c(F)c(F)cc(F)c2F)cc1` (configuration not stated): 78.6 µM. Still for that read-out and setting: next, `CCCCCC/C=C/C#CCCCCCCCC(=O)O`: over 100 µM; `O=C(O)c1cc2ccccc2c(Cc2c(O)c(C(=O)O)cc3ccccc23)c1O`: over 100 µM. Still for that read-out and setting: the value for `CC1=C(C(=O)Nc2cccc(Cl)c2)C(c2ccccc2O)C(C(=O)Nc2cccc(Cl)c2)=C(C)N1` was 48.2 µM; that for `C[C@@H](C1CC[C@H]2[C@@H]3[C@@H]4O[C@@H]4[C@@]4(O)CC=CC(=O)[C@]4(C)[C@H]3C[C@H](O)[C@]12C)[C@H]1C[C@]2(C)O[C@]2(C)C(=O)O1` (some centres not stated) was over 100 µM; that for `O=C(CCC(=O)Nc1ccccc1C(F)(F)F)N/N=C1\C(=N\NC(=O)CCC(=O)Nc2ccccc2C(F)(F)F)C(c2ccc3c(c2)OCO3)Oc2ccccc21` (configuration not stated) was over 100 µM. Take `C=C1C(=O)OC2C1CCC(=C)C1CC(O)C(=C)C12` (configuration not stated): the TGI came to 67.9 µM.

`CN1C(=O)c2ccccc2C(O)(c2ccccc2)C1(O)c1ccccc1` (configuration not stated) yielded a TGI of over 100 µM.

Molecule `O=C(O)C1C2C=CC(O2)C1C(=O)NCc1cccnc1` (configuration not stated) registered a TGI of over 100 µM. Consider `C/C(NNC(=O)c1ccccc1O)=C1\C=Nc2ccccc2S1`, for which the TGI was over 100 µM. On the same count and under the same terms, the value for `COc1ccccc1-n1cnc2c1NC(C)(C)N=C2C(N)=O` was over 100 µM. Molecule `Oc1ccc2ccccc2c1CCc1c(O)ccc2ccccc12` showed a TGI of 24.9 µM.

As to `COc1cccc(/C=N/[N-]C(=O)c2ccncc2)c1[O-].[Mn+2].[OH3+]`, the GI50 was 3.84 µM and the TGI was over 100 µM.

Molecule `Cn1c(N/N=C/c2ccccc2)nc(-c2ccc3c(c2)OCO3)c(C#N)c1=O` showed a TGI of over 100 µM. On the same count and under the same terms, next, `CCOC(=O)/C=C/n1c2ccccc2c(=O)c2cc(OC)ccc21`: over 100 µM; `CCO/C(O)=C(/C(=N)N1CCOCC1)C(=O)Nc1cccc(C(F)(F)F)c1`: over 100 µM; `CC(=O)c1ccc(N2C(=O)C3c4[nH]c5ccccc5c4C4CCC(C(C)(C)C)CC4C3C2=O)cc1` (configuration not stated): over 100 µM. `COc1c(C)c(C/C=C(\C)CC/C=C(\C)CC/C=C(\C)CCC=C(C)C)c(OC)c(OC)c1OC` yielded a TGI of over 100 µM. On the same count and under the same terms, the value for `Nc1n[n+]([O-])c2cc([N+](=O)[O-])ccc2[n+]1[O-]` was 64.2 µM.

`CCCCCCCCSC(=O)NCCCC` displayed a TGI of over 100 µM.

In the case of `CN(C)c1ccc(/C=C/C(=O)c2cc(C(C)(C)C)c(O)c(C(C)(C)C)c2)cc1`, the TGI was over 100 µM. The same measure, in the same setting: the value for `Cc1cc(OCc2nc(N)nc(N)c2-c2ccc(Cl)c(Cl)c2)ccc1[N+](=O)[O-]` was 20.6 µM; that for `O=[N+]([O-])c1cc(C2(N3CCCCC3)CCCCC2)sc1Br` was 25.7 µM; that for `CCOC(=O)c1oc2c(OC)ccc3c2c1CCC3` was over 100 µM. The same measure, in the same setting: the value for `O=C(N/N=C(/COc1ccccc1)N=Cc1ccncc1)c1ccncc1` was over 100 µM. Still for that read-out and setting: next, `NC(Cc1ccc(O)cn1)C(=O)NC(C(=O)O)c1ccccc1` (configuration not stated): over 100 µM.

As to `N#C/C(=C\c1ccc(O)c(O)c1)C(=O)NCc1ccc(C(F)(F)F)cc1`, the GI50 is 15.1 µM and the total growth inhibition concentration (TGI) stood at 52.7 µM. For `Cc1c(C)c2c(c(C)c1OC(=O)CCC(=O)[O-])CCC(C)(CCCCCCCCCCC[P+](c1ccccc1)(c1ccccc1)c1ccccc1)O2` (configuration not stated) the same measures were 0.309 µM and 1.17 µM.

As to `C/C=C1\CC(C(=O)OCC)CCCCCCC1=O` (configuration not stated), the concentration for total growth inhibition (TGI) was over 100 µM. As for `Nc1nc(=O)n(C2CC(O)C(CO)O2)cc1F` (configuration not stated), the GI50 was over 71.5 µM and the TGI was over 100 µM. `O=C1c2ccccc2N=C(c2cc3c(cc2Cl)Sc2nccn2S3(=O)=O)OS(=O)(=O)N1c1ccccc1` had a TGI of over 100 µM. Still for that read-out and setting: next, `COc1ccc(/C=C2/N=C(N/N=C\C(O)C(O)C(O)CO)NC2=O)cc1` (configuration not stated): over 100 µM.

By TGI is commonly meant the concentration at which net growth stops. A higher TGI goes with lower sensitivity of the cells. The term GI50 denotes the concentration that inhibits growth by half.
